# Laboratory results taken from the supplement of paper PMC8728848.
# Some of the results follow.
# B1: SialidaseA (Arthrobacter ureafaciens) (protein)
# chain: MRSNSTSAPSLVRRAATGVLTCAVSIGLLAGLGLPAQAAPTPPNSPTLPPGSFSETNLAADRTAANFFYRIPALTYLGNDVVLAAWDGRPGSAADAPNPNSIVQRRSTDGGKTWGPVQVIAAGHVADASGPRYGYSDPSYIYDAEANKVFAFFVYSKDQGFGGSQFGNDDADRNVISSAVIESSDAGVTWSQPRLITSVTKPGTSKTNPAAGDVRSNFASSGEGIQLKYGPHKGRLIQQYAGDVRQADGSNKIQAYSVYSDDHGVTWHKGANVGDRMDENKTVELSDGRVLLNSRDNANRGYRKVAVSTDGGATYGPVSQDTELPDPANNGAIARMFPNAAQGSADAKKLIFTNANSKTGRENVSARVSCDDGETWPGVRTIRSGFSAYSTVTRLADGKFGVLYEGNYTDNMPFATFDDAWLNYVCAPLAVPAVNIAPSATQEVPVTVTNQEATTLSGATATVYTPSGWSATTVPVPDVAPGASVTVTVALTAPADASGPRSLNAAFTTADGRVSQFTFTATTPVAPQVGLTITGSAPARDVAANPYQAGDVLGYTLNVKSTANVAANSVPLTGTFDSGFLPPAAPNCRYNNLAAGASYNCTTAKHTITAADMERGYFVPEATFSITSTTTPSLTKTVQFTGAAVALRDGLISADISGARTDVGRDLATRPYAAGELVPYAFTVKNTSPFVEQVVPTAGNFSPFLPAGAGNCRYLSLPAGQSYECATPRHAVTAEEVEQGFFVPDTTWEVSAAGQSTRTYRINGGEVDLLVRDAALSATVVAEWKDADGDRFASAGDPVTFTYTVGNAGNVALTGLEAPDAGISLPFLAPGDTATATREHVLTAADVAGGSLAASAFEATARNGSKEVTATAEGQPLELKVQPAQPSKEPELTVQDLEDQTPPFDLGTAFKYRTGQKVSLAGLEYGQWYYVYLNKTGYRLGWMFPTTGDTVEFILPPEVRNGRDDVVVLDKDGRRVSFDRLQVTPKGEKI
# Experiments:
# Assay in all cases: glycan array binding signal (z-score within array); higher = stronger binding
# Conditions in all cases: glycan notation: IUPAC condensed, linker removed
# [1] = biological target: Gal(b1-3)GlcNAc(b1-2)Man(a1-3)[Gal(b1-3)GlcNAc(b1-2)Man(a1-6)]Man(b1-4)GlcNAc(b1-4)[Fuc(a1-6)]GlcNAc
# In short: (§1)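 Negative Z-scores can be read as non-binding. The Z-score is calculated within each array and then averaged across arrays of one protein sequence at different concentrations or buffers and across linkers. Arrays, 3228 in all, were curated from the Consortium for Functional Glycomics database and kept only where the protein sequence was available.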
# [2] = biological target: Gal(b1-3)GlcNAc(b1-2)Man(a1-3)[GlcNAc(b1-4)][Gal(b1-3)GlcNAc(b1-2)Man(a1-6)]Man(b1-4)GlcNAc(b1-4)GlcNAc
# In short: as §1
# [3] = biological target: Gal(b1-3)GlcNAc(b1-2)[Gal(b1-3)GlcNAc(b1-6)]Man(a1-6)[Gal(b1-3)GlcNAc(b1-2)Man(a1-3)]Man(b1-4)GlcNAc(b1-4)GlcNAc
# In short: as §1
# [4] = biological target: Gal(b1-3)GlcNAc(b1-3)Gal(b1-3)GlcNAc
# In short: as §1
# [5] = biological target: Gal(b1-3)GlcNAc(b1-3)Gal(b1-4)Glc
# In short: as §1
# [6] = biological target: Gal(b1-3)GlcNAc(b1-3)Gal(b1-4)GlcNAc
# In short: as §1
# [7] = biological target: Gal(b1-3)GlcNAc(b1-3)Gal(b1-4)GlcNAc(b1-2)Man(a1-3)[Gal(b1-3)GlcNAc(b1-3)Gal(b1-4)GlcNAc(b1-2)Man(a1-6)]Man(b1-4)GlcNAc(b1-4)GlcNAc
# In short: as §1
# [8] = biological target: Gal(b1-3)GlcNAc(b1-3)Gal(b1-4)GlcNAc(b1-2)[Gal(b1-3)GlcNAc(b1-3)Gal(b1-4)GlcNAc(b1-6)]Man(a1-6)[Gal(b1-3)GlcNAc(b1-3)Gal(b1-4)GlcNAc(b1-2)Man(a1-3)]Man(b1-4)GlcNAc(b1-4)[Fuc(a1-6)]GlcNAc
# In short: as §1
# [9] = biological target: Gal(b1-3)GlcNAc(b1-3)Gal(b1-4)GlcNAc(b1-3)Gal(b1-4)GlcNAc(b1-2)[Gal(b1-3)GlcNAc(b1-3)Gal(b1-4)GlcNAc(b1-3)Gal(b1-4)GlcNAc(b1-6)]Man(a1-6)[Gal(b1-3)GlcNAc(b1-3)Gal(b1-4)GlcNAc(b1-3)Gal(b1-4)GlcNAc(b1-2)Man(a1-3)]Man(b1-4)GlcNAc(b1-4)[Fuc(a1-6)]GlcNAc
# In short: as §1
# [10] = biological target: Gal(b1-3)GlcNAc(b1-3)Gal(b1-4)GlcNAc(b1-6)[Gal(b1-3)GlcNAc(b1-3)]Gal(b1-4)Glc
# In short: as §1
# [11] = biological target: Gal(b1-3)GlcNAc(b1-3)Gal(b1-4)[Fuc(a1-3)]GlcNAc
# In short: as §1
# [12] = biological target: Gal(b1-3)GlcNAc(b1-3)Gal(b1-4)[Fuc(a1-3)]GlcNAc(b1-6)[Gal(b1-3)GlcNAc(b1-3)]Gal(b1-4)Glc
# In short: as §1
# [13] = biological target: Gal(b1-3)GlcNAc(b1-3)GalNAc
# In short: as §1
# [14] = biological target: Gal(b1-3)GlcNAc(b1-6)Gal(b1-4)GlcNAc
# In short: as §1
# [15] = biological target: Gal(b1-3)GlcNAc(b1-6)GalNAc
# In short: as §1
# [16] = biological target: Gal(b1-3)GlcNAc(b1-6)[Gal(b1-3)]GalNAc
# In short: as §1
# Gal(b1-3)GlcNAc6S = biological target: Gal(b1-3)GlcNAc6S
# In short: as §1
# [17] = biological target: Gal(b1-3)[Fuc(a1-4)]GlcNAc
# In short: as §1
# [18] = biological target: Gal(b1-3)[Fuc(a1-4)]GlcNAc(b1-2)Man
# In short: as §1
# [19] = biological target: Gal(b1-3)[Fuc(a1-4)]GlcNAc(b1-2)Man(a1-3)[Gal(b1-3)[Fuc(a1-4)]GlcNAc(b1-2)Man(a1-6)]Man(b1-4)GlcNAc(b1-4)[Fuc(a1-6)]GlcNAc
# In short: as §1
# [20] = biological target: Gal(b1-3)[Fuc(a1-4)]GlcNAc(b1-3)Gal(b1-3)[Fuc(a1-4)]GlcNAc
# In short: as §1
# [21] = biological target: Gal(b1-3)[Fuc(a1-4)]GlcNAc(b1-3)Gal(b1-4)[Fuc(a1-3)]GlcNAc
# In short: as §1
# [22] = biological target: Gal(b1-3)[Fuc(a1-4)]GlcNAc(b1-6)GalNAc
# In short: as §1
# [23] = biological target: Gal(b1-3)[GlcNAc(b1-6)]GalNAc
# In short: as §1
# [24] = biological target: Gal(b1-3)[Neu5Ac(a2-6)]GalNAc
# In short: as §1
# [25] = biological target: Gal(b1-3)[Neu5Ac(a2-6)]GlcNAc(b1-4)Gal(b1-4)Glc
# In short: as §1
# [26] = biological target: Gal(b1-3)[Neu5Ac(b2-6)]GalNAc
# In short: as §1
# Gal(b1-4)Gal = biological target: Gal(b1-4)Gal
# In short: as §1
# [27] = biological target: Gal(b1-4)GalNAc(a1-3)[Fuc(a1-2)]Gal(b1-4)GlcNAc
# In short: as §1
# [28] = biological target: Gal(b1-4)GalNAc(b1-3)[Fuc(a1-2)]Gal(b1-4)GlcNAc
# In short: as §1
binder,measurement,setting,value
B1,glycan array binding signal (z-score),[1],0.029
same,glycan array binding signal (z-score),[2],-0.31
same,glycan array binding signal (z-score),[3],-0.146
same,glycan array binding signal (z-score),[4],-0.696
same,glycan array binding signal (z-score),[5],-0.55
same,glycan array binding signal (z-score),[6],-0.792
same,glycan array binding signal (z-score),[7],-0.647
same,glycan array binding signal (z-score),[8],0.572
same,glycan array binding signal (z-score),[9],0.18
same,glycan array binding signal (z-score),[10],-0.464
same,glycan array binding signal (z-score),[11],-0.406
same,glycan array binding signal (z-score),[12],-0.842
same,glycan array binding signal (z-score),[13],-0.646
same,glycan array binding signal (z-score),[14],-0.241
same,glycan array binding signal (z-score),[15],-0.678
same,glycan array binding signal (z-score),[16],-0.717
same,glycan array binding signal (z-score),Gal(b1-3)GlcNAc6S,-0.625
same,glycan array binding signal (z-score),[17],-0.613
same,glycan array binding signal (z-score),[18],-0.159
same,glycan array binding signal (z-score),[19],-0.438
same,glycan array binding signal (z-score),[20],-0.635
same,glycan array binding signal (z-score),[21],-0.741
same,glycan array binding signal (z-score),[22],-0.258
same,glycan array binding signal (z-score),[23],-0.567
same,glycan array binding signal (z-score),[24],1.34
same,glycan array binding signal (z-score),[25],2.48
same,glycan array binding signal (z-score),[26],2.4
same,glycan array binding signal (z-score),Gal(b1-4)Gal,-0.692
same,glycan array binding signal (z-score),[27],-0.867
same,glycan array binding signal (z-score),[28],-0.546
